# Measured values as given in a collection of fitness landscapes (doi:10.1126/science.1257360).
# The list shows a part of the results.
# B1: PhoQ; a variant is named by its letters at X, in order, P23837 (parent)
# chain: MKKLLRLFFPLSLRVRFLLATAAVVLVLSLAYGMVALIGYSVSFDKTTFRLLRGESNLFYTLAKWENNKLHVELPENIDKQSPTMTLIYDENGQLLWAQRDVPWLMKMIQPDWLKSNGFHEIEADVNDTSLLLSGDHSIQQQLQEVREDDDDAEMTHSVAVNVYPATSRMPKLTIVVVDTIPVELKSSYMVWSWFIYVLSANLLLVIPLLWVAAWWSLRPIEALAKEVRELEEHNRELLNPATTRELTSLVRNLNRLLKSERERYDKYRTTLTDLTHSLKTPLXXLQXXLRSLRSEKMSVSDAEPVMLEQISRISQQIGYYLHRASMRGGTLLSRELHPVAPLLDNLTSALNKVYQRKGVNISLDISPEISFVGEQNDFVEVMGNVLDNACKYCLEFVEISARQTDEHLYIVVEDDGPGIPLSKREVIFDRGQRVDTLRPGQGVGLAVAREITEQYEGKIVAGESMLGGARMEVIFGRQHSAPKDE
# Variants of: B1
# Assay: enrichment ratio after two sorts for PhoP signalling (ratio (wild type AVST 3.29)); higher = more functional
# Conditions: with PhoP (E. coli)
row,Variant,enrichment ratio
1,RYRN,≤ 0.25
2,PGEV,≤ 0.25
3,PTFS,≤ 0.25
4,RMKY,≤ 0.25
5,ELPK,≤ 0.25
6,WVFL,≤ 0.25
7,ATVD,≤ 0.25
8,WKPW,≤ 0.25
9,MKPR,≤ 0.25
10,SHLQ,7.83
11,MHLE,≤ 0.25
12,EPRW,≤ 0.25
13,FMHT,≤ 0.25
14,YFMH,≤ 0.25
15,RNGH,≤ 0.25
16,ASDW,≤ 0.25
17,PIHR,≤ 0.25
18,AFFV,≤ 0.25
19,YFGM,≤ 0.25
20,GGFR,≤ 0.25
21,RQIP,≤ 0.25
22,GGCE,≤ 0.25
23,HPDM,≤ 0.25
24,ASLW,1.6

row,Variant,enrichment ratio
1,IAGS,≤ 0.25
2,TKLI,13
3,KRRF,≤ 0.25
4,NLLP,≤ 0.25
5,WTVW,≤ 0.25
6,PDKN,≤ 0.25
7,MDYH,≤ 0.25
8,NNQA,≤ 0.25
9,YGPC,≤ 0.25
10,VNNQ,≤ 0.25
11,LWMH,≤ 0.25
12,AWCY,≤ 0.25
13,KRMM,≤ 0.25
14,VVYE,≤ 0.25
15,NSFH,≤ 0.25
16,ECDM,≤ 0.25
17,YDFF,≤ 0.25
18,EDCC,≤ 0.25
19,MYIE,≤ 0.25
20,SREL,≤ 0.25
21,RYTF,≤ 0.25
22,KMEC,≤ 0.25
23,QYHF,≤ 0.25
24,QHCA,≤ 0.25

row,Variant,enrichment ratio
1,HEMP,≤ 0.25
2,LELM,5.99
3,TYVT,≤ 0.25
4,DATV,≤ 0.25
5,KYHR,≤ 0.25
6,SDCD,≤ 0.25
7,VQYW,≤ 0.25
8,ESFI,≤ 0.25
9,MAVC,≤ 0.25
10,RFPE,≤ 0.25
11,RMKP,≤ 0.25
12,TNQT,7.38
13,QHRG,≤ 0.25
14,AFCS,≤ 0.25
15,MAFY,5.02
16,ATCE,0.272
17,PTLE,≤ 0.25
18,WLVD,≤ 0.25
19,TGHL,7.55
20,SVII,0.415
21,ESPD,≤ 0.25
22,EMVV,≤ 0.25
23,GRTM,≤ 0.25
24,VKCW,≤ 0.25

row,Variant,enrichment ratio
1,DMKR,≤ 0.25
2,YNPD,≤ 0.25
3,KYRK,≤ 0.25
4,PSCN,≤ 0.25
5,LQRS,≤ 0.25
6,RQFY,0.976
7,EHIC,≤ 0.25
8,FKCE,≤ 0.25
9,ASLV,18.7
10,ESMN,≤ 0.25
11,YNRV,≤ 0.25
12,TPTN,≤ 0.25
13,FHSF,≤ 0.25
14,DVLT,≤ 0.25
15,LEKY,≤ 0.25
16,IGLP,≤ 0.25
17,VVMH,≤ 0.25
18,NVTN,≤ 0.25
19,LWPT,≤ 0.25
20,SWYC,≤ 0.25
21,VYDY,≤ 0.25
22,PNYH,≤ 0.25
23,FTAN,≤ 0.25
24,IYVY,≤ 0.25

row,Variant,enrichment ratio
1,LLHP,≤ 0.25
2,YLYD,≤ 0.25
3,EHFA,≤ 0.25
4,SLRW,≤ 0.25
5,LHNI,≤ 0.25
6,EHTV,≤ 0.25
7,TLFM,≤ 0.25
8,TPTF,≤ 0.25
9,SQRQ,≤ 0.25
10,FERK,≤ 0.25
11,FWKG,≤ 0.25
12,CKIF,≤ 0.25
13,QAMI,≤ 0.25
14,HSNI,≤ 0.25
15,MDHK,≤ 0.25
16,IRYQ,≤ 0.25
17,RANV,≤ 0.25
18,EPLK,≤ 0.25
19,MICV,≤ 0.25
20,GKAY,≤ 0.25
21,HMTV,≤ 0.25
22,SSGK,≤ 0.25
23,LNHM,≤ 0.25
24,SAHR,≤ 0.25

row,Variant,enrichment ratio
1,FICR,≤ 0.25
2,KDYR,≤ 0.25
3,SCQA,≤ 0.25
4,YQHV,≤ 0.25
5,FDGL,≤ 0.25
6,EHLP,≤ 0.25
7,WVPR,≤ 0.25
8,YVCL,0.626
9,RVTT,≤ 0.25
10,APLS,≤ 0.25
11,MLTT,≤ 0.25
12,AGCE,6.71
13,KHWC,≤ 0.25
14,YWHW,≤ 0.25
15,DEVV,≤ 0.25
16,NTIN,≤ 0.25
17,HLFY,≤ 0.25
18,LIRN,≤ 0.25
19,MQYL,10.8
20,WYIY,≤ 0.25
21,TSRF,≤ 0.25
22,NWCC,≤ 0.25
23,LDDP,≤ 0.25
24,FKVE,≤ 0.25

row,Variant,enrichment ratio
1,PMID,≤ 0.25
2,LRWN,≤ 0.25
3,ADRC,≤ 0.25
4,WVNF,≤ 0.25
5,MPVT,≤ 0.25
6,DNFW,≤ 0.25
7,KQQP,≤ 0.25
8,PAVE,≤ 0.25
9,PSDN,≤ 0.25
10,IAGL,≤ 0.25
11,HLWC,≤ 0.25
12,IGIH,≤ 0.25
13,YDHD,≤ 0.25
14,HQFH,≤ 0.25
15,IWFC,≤ 0.25
16,FKIK,7.33
17,EQHC,≤ 0.25
18,DGKH,≤ 0.25
19,FGKL,≤ 0.25
20,QDWP,≤ 0.25
21,VAWK,≤ 0.25
22,ERAD,≤ 0.25
23,QLVE,≤ 0.25
24,AAIR,≤ 0.25

row,Variant,enrichment ratio
1,FQVP,≤ 0.25
2,SEFI,6.95
3,SHQF,≤ 0.25
4,SASL,7.66
5,YYAI,≤ 0.25
6,VPVW,≤ 0.25
7,YPFW,≤ 0.25
8,LCNM,≤ 0.25
9,KGFL,≤ 0.25
10,QRLQ,≤ 0.25
11,LMSY,≤ 0.25
12,IFEE,≤ 0.25
13,FWEA,≤ 0.25
14,LSCA,≤ 0.25
15,PHQL,≤ 0.25
16,QPHV,≤ 0.25
17,PECE,≤ 0.25
18,EVEP,≤ 0.25
19,FSVR,≤ 0.25
20,DNTL,≤ 0.25
21,RVMA,≤ 0.25
22,IIPQ,≤ 0.25
23,LFSK,≤ 0.25
24,SWHI,≤ 0.25

row,Variant,enrichment ratio
1,GDST,2.69
2,WMHP,≤ 0.25
3,TAGS,8.39
4,PFSF,≤ 0.25
5,VKAI,≤ 0.25
6,DYHI,≤ 0.25
7,FRVR,≤ 0.25
8,LLPY,≤ 0.25
9,WVAM,≤ 0.25
10,EQDH,≤ 0.25
11,TDPA,≤ 0.25
12,GEPI,≤ 0.25
13,PIFI,≤ 0.25
14,LIKR,≤ 0.25
15,PKGS,≤ 0.25
16,DVAT,≤ 0.25
17,MHKG,≤ 0.25
18,GTLV,7.85
19,LYQM,≤ 0.25
20,TLGM,9.54
21,NYSL,≤ 0.25
22,LFLN,≤ 0.25
23,KMVF,≤ 0.25
24,EMFH,≤ 0.25

row,Variant,enrichment ratio
1,PNAV,≤ 0.25
2,NWVF,≤ 0.25
3,WYQN,≤ 0.25
4,DYQT,≤ 0.25
5,FMML,≤ 0.25
6,QDLD,≤ 0.25
7,AQFI,≤ 0.25
8,DNIC,≤ 0.25
9,NDGG,≤ 0.25
10,SCKW,≤ 0.25
11,LMIM,≤ 0.25
12,VDEF,≤ 0.25
13,PFNP,≤ 0.25
14,MNEY,≤ 0.25
15,WPGN,≤ 0.25
16,NHTP,≤ 0.25
17,TADI,10.8
18,EQPV,≤ 0.25
19,IALN,1.51
20,MPNM,≤ 0.25
21,GAPG,≤ 0.25
22,SCPS,≤ 0.25
23,FFLW,≤ 0.25
24,LALG,2.29

row,Variant,enrichment ratio
1,TWMV,≤ 0.25
2,EIFW,≤ 0.25
3,TMWD,≤ 0.25
4,MSQR,≤ 0.25
5,QFWK,≤ 0.25
6,RFHV,≤ 0.25
7,MLRI,≤ 0.25
8,ECTL,≤ 0.25
9,RTTW,≤ 0.25
10,AHCL,9.7
11,VVHA,≤ 0.25
12,WTTK,≤ 0.25
13,GWTS,≤ 0.25
14,AGAA,2.46
15,MKCL,16.5
16,YKMT,0.253
17,GSQN,≤ 0.25
18,SQKF,≤ 0.25
19,NLIH,≤ 0.25
20,WFSM,≤ 0.25
21,DCPW,≤ 0.25
22,MTCL,12.8
23,VSDG,≤ 0.25
24,LLEY,≤ 0.25

row,Variant,enrichment ratio
1,ITIK,≤ 0.25
2,QITV,≤ 0.25
3,KIYH,≤ 0.25
4,TRHP,≤ 0.25
5,NCFH,≤ 0.25
6,HPFI,≤ 0.25
7,GDER,≤ 0.25
8,VIQS,≤ 0.25
9,PHYK,≤ 0.25
10,TTAP,≤ 0.25
11,HSPY,≤ 0.25
12,YLWM,≤ 0.25
13,ISQR,≤ 0.25
14,CNSA,≤ 0.25
15,SPVM,≤ 0.25
16,VKYA,≤ 0.25
17,SFDW,≤ 0.25
18,SLAI,15.7
19,KLWQ,≤ 0.25
20,HASR,≤ 0.25
21,WWKS,≤ 0.25
22,NAIG,≤ 0.25
23,SIMI,17.4
24,LLRN,≤ 0.25

row,Variant,enrichment ratio
1,VLAA,≤ 0.25
2,WKGH,≤ 0.25
3,IEHM,≤ 0.25
4,HAKW,≤ 0.25
5,KCWY,≤ 0.25
6,QKCV,2.74
7,SQEF,≤ 0.25
8,IDEI,≤ 0.25
9,ENVS,≤ 0.25
10,HCGF,≤ 0.25
11,MFCG,≤ 0.25
12,NILG,≤ 0.25
13,KMSR,≤ 0.25
14,EKID,≤ 0.25
15,VFHQ,≤ 0.25
16,TTHH,11.8
17,GDCH,≤ 0.25
18,DPLP,≤ 0.25
